In all, about 33,000 sequences were measured (“E-score (-0.5 to 0.5)”: median about -0.043, highest 2% from about 0.37 on). This is one part of the list.
target: T1, Upc2 (UniProt Q12151); assay: PBM E-score (8-mer binding enrichment) (E-score (-0.5 to 0.5)); higher = stronger / more preferred TF binding; most listed sequences are background and not binding sites; details: protein concentration: 200 nM; construct: GST-full length
T1 sequence: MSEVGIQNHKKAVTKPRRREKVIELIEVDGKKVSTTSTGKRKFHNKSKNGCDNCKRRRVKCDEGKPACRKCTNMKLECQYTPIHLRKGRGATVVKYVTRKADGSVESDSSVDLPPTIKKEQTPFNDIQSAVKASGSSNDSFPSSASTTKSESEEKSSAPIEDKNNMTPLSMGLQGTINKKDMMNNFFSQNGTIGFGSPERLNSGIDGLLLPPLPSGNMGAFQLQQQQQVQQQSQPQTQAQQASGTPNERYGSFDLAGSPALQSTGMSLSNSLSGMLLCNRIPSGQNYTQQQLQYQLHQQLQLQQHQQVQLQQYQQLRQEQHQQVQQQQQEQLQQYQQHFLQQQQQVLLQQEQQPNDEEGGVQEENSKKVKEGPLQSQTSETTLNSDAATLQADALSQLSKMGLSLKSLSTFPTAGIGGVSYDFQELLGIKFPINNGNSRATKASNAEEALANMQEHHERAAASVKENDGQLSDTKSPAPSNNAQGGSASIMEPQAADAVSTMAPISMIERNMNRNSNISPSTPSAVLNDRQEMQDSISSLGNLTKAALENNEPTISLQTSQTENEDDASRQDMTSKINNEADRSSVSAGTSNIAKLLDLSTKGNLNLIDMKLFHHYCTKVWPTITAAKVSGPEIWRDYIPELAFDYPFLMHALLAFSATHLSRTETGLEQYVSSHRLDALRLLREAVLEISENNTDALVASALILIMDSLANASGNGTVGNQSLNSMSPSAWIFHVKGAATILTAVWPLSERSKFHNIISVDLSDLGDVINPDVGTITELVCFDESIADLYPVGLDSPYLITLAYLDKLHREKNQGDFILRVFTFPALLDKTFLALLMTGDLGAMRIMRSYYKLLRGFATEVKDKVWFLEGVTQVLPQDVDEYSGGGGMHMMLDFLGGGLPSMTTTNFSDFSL
Description: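 Universal 'all 10-mer' protein binding microarrays (Agilent AMADID 015681) probed with GST-tagged S. cerevisiae TFs (full-length or DBD) made by in vitro transcription/translation (PURExpress), about 100-200 nM. Bound TF was detected with fluorescent anti-GST. Each ungapped 8-mer (which stands for itself and its reverse complement) is scored by the PBM enrichment score (E-score), a modified Wilcoxon-Mann-Whitney statistic from -0.5 to +0.5, computed with the Universal PBM Analysis Suite. Scale: above 0.35 generally sequence-specific binding.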

| Sequence | PBM E-score |
| --- | --- |
| GTTCCTGA | 0.0703 |
| AGTGACGC | 0.0137 |
| AATATGAT | -0.0941 |
| CGCTTTTA | 0.0813 |
| ACGATCGA | 0.294 |
| AGTGCAGC | -0.22 |
| GCTTAACC | 0.0126 |
| AACCACTA | -0.0891 |
| GGACGGGA | -0.0849 |
| GAGTAAGA | -0.00183 |
| CCGTCTCG | 0.174 |
| GTGCCGGA | -0.103 |
| CTAGAGGC | -0.129 |
| TACAGTGA | -0.0988 |
| AGCAAGGC | -0.12 |
| CCAATCGC | -0.0252 |
| ACCCTTGG | -0.211 |
| TCCAGCCA | -0.231 |
| TGCAGGCA | -0.105 |
| AGATGCTA | 0.00425 |
| ACACGTGG | -0.174 |
| AAATGCAT | -0.0482 |

| Sequence | PBM E-score |
| --- | --- |
| ATGACAGG | -0.132 |
| CTGTCGGA | 0.0382 |
| GGCATAAC | -0.0916 |
| AACATGGG | -0.11 |
| ACAAGTCA | -0.0319 |
| CGAAACAC | 0.0965 |
| GACTTCCC | -0.209 |
| GCTCGACA | -0.151 |
| CAGGCCTC | -0.293 |
| CACGATTC | 0.258 |
| AACAAGGC | -0.167 |
| CGCATAAC | 0.238 |
| ATTACGTC | -0.0126 |
| AACTTGCT | -0.304 |
| TATTCCGA | 0.0382 |
| ACCTGGAG | -0.161 |
| TACTGCAA | 0.00266 |
| CAGACAGG | -0.078 |
| GGCGATCA | -0.12 |
| AGATTGGA | -0.163 |
| CCTATACC | 0.167 |
| CGCCAAAC | 0.108 |

| Sequence | PBM E-score |
| --- | --- |
| GAACCTAA | -0.0948 |
| GGAGGGAA | -0.19 |
| CCGATATC | 0.0326 |
| AAGGGCTG | -0.332 |
| GAAGATGC | -0.128 |
| AATACAAA | 0.118 |
| ACGCGGTG | 0.042 |
| AACACCTC | -0.0661 |
| CGCATCGA | 0.0973 |
| AGCCAGCT | -0.0464 |
| TATCACCA | 0.0386 |
| GGTACAAA | 0.0128 |
| CTCGATGA | -0.0714 |
| AATTGCCA | -0.125 |
| ATTGTCCG | -0.0457 |
| CCATAGCG | -0.0286 |
| CATGAGCC | -0.215 |
| AATCACTA | 0.0266 |
| ATTGGGGA | -0.134 |
| CGCAGTAG | -0.0605 |
| AGCCTTCA | -0.211 |
| CTAGTGAC | -0.191 |

| Sequence | PBM E-score |
| --- | --- |
| TGCAGCCA | -0.109 |
| CTCGCCCA | -0.102 |
| TAAAGCAA | 0.0119 |
| CATTGCAA | -0.101 |
| AATGCCGT | 0.143 |
| AGGACGAA | -0.156 |
| CCTGTTCC | -0.177 |
| CGTCGCAC | 0.131 |
| ACGGGATG | 0.15 |
| CGGTACGC | 0.324 |
| GGGCAGTA | 0.0248 |
| GGGTCACA | -0.201 |
| GGAGCGAA | 0.152 |
| ATGGCATC | -0.118 |
| AGATTTCA | 0.0224 |
| TATTAAGA | 0.164 |
| GTATTTGA | 0.119 |
| ATCTATTC | 0.0736 |
| ACCCAGAT | -0.233 |
| ATAAGTCC | -0.0003 |
| GACGTGAC | -0.00555 |
| CGGACGTC | 0.131 |

| Sequence | PBM E-score |
| --- | --- |
| CGCCATAA | -0.168 |
| GAGAACAC | -0.225 |
| GAACCACA | -0.0218 |
| TCGAAGCA | -0.0264 |
| TACACGCA | -0.00816 |
| TAAGCCAA | -0.00755 |
| ACACAATA | 0.0571 |
| GACAGTGA | -0.0168 |
| TACGGACA | 0.3 |
| AGAATGTC | -0.0606 |
| ATCTTGTA | 0.0573 |
| AGCCTCTG | -0.0978 |
| GATCTAGA | -0.139 |
| ACATCCAT | -0.102 |
| AACTAAGA | 0.0375 |
| CCCAAAGA | -0.274 |
| CAGGTGTC | -0.185 |
| GAAAGCGA | 0.119 |
| AACTGCTA | -0.0821 |
| GCAAATGA | 0.0817 |
| AATTTGCT | -0.0154 |
| CAAATGCA | 0.0199 |
